Source: ChEMBL document CHEMBL1201862, “PubChem BioAssay data set” (2004)
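96-well plates; 48 h exposure; 5 concentrations. Endpoints by linear interpolation between flanking doses. Not reached: highest tested concentration assigned. The concentration for 50% growth inhibition is given as GI50.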 Active and inactive are the calls of the source. Cut-off read from the data, not from the text of the source: active = GI50 up to about 1.1 µM and inactive = higher.

Tested on: NCI-H322M
Assay: inhibition of tumour cell growth, NCI panel, 48 h

Row | SMILES | GI50
1 | [O-]c1c2c(nn1-c1ccc(F)cc1)c1ccccc1c[n+]2Cc1ccccc1 | inactive: 23.3 µM
2 | C=CCn1c(S)nnc1C12CC3CC(CC(C3)C1)C2 | inactive: > 100 µM
3 | CN1CCN(CCCN)CC1 | inactive: > 100 µM
4 | Cc1c(-c2nc(N)nc(C3CC3)c2C)nc(N)nc1C1CC1 | inactive: > 100 µM
5 | CC(=O)OC1C2CCC1C1C2N=NN1c1ccc([N+](=O)[O-])cc1 (stereo unspecified) | inactive: > 100 µM
6 | O=P(O)(O)CN1CCNCCN(CP(=O)(O)O)CCN(CP(=O)(O)O)CCNCC1 | inactive: > 100 µM
7 | CN(C)CCCNc1c2ccccc2nc2cccc([N+](=O)[O-])c12 | active: 0.00254 µM
8 | C=CCC(O)c1cc(OC)ccc1OC (stereo unspecified) | inactive: > 100 µM
9 | Cc1cc(=O)oc2c(CNC(C(=O)O)C(C)O)c(O)ccc12 (stereo unspecified) | inactive: > 100 µM
10 | COc1ccc(/C=C/C(=O)c2sc(-n3nc(-c4ccccc4)cc3-c3ccccc3)nc2C)cc1OC | inactive: 50.1 µM
11 | CN/N=C(/CC(=O)c1sc(-n2nc(-c3ccccc3)cc2-c2ccccc2)nc1C)C(=O)Nc1ccc(Cl)c(Cl)c1 | inactive: > 100 µM
12 | COc1nc(SC)nc2c1cnn2C1OC(C(O)CO)C(OC)C1O (stereo unspecified) | inactive: > 100 µM
13 | O=C1OC(CN2CCN(c3ccccc3)CC2)CN1C(=S)Nc1ccccc1 (stereo unspecified) | inactive: > 100 µM
14 | CCC(C#N)N(Cc1ccc(CN(C(=O)c2ccccc2)C(C#N)CC)cc1)C(=O)c1ccccc1 (stereo unspecified) | inactive: 40.1 µM
15 | CNC(c1ccncc1)C(NC)c1ccncc1 (stereo unspecified) | inactive: > 100 µM
16 | O=S(=O)(CC1=NC2C=CC=CC2N=C1)NCc1ccccc1 (stereo unspecified) | inactive: > 100 µM
17 | CCCCCC(O)(CCCCC)CCCCCCCCC1=C(O)C(=O)c2ccccc2C1=O | inactive: 14.9 µM
18 | CN(CCNC(=O)c1cc(-c2ccccc2)nc2ccccc12)CCNC(=O)c1cc(-c2ccccc2)nc2ccccc12 | inactive: 59.4 µM
19 | O=C(Nc1sccc1S(=O)(=O)c1ccc(Cl)cc1)c1ccc(F)cc1F | inactive: 68.2 µM
20 | O=NN(CCCl)C(=O)N[C@H]1CC[C@@H](O)CC1 | inactive: 98.2 µM
21 | O=C1CCCCCCCCCCC1CCCCCBr (stereo unspecified) | inactive: 39.7 µM
22 | N=C(N)n1nc2c(c1O)CCC2 | inactive: > 100 µM

Row | SMILES | GI50
23 | COc1ccc(OC)c([N+](=O)[O-])c1-c1nc2sccn2c1/C=N/N=C(N)N | inactive: 64.1 µM
24 | O=C1C(Cl)C2(CC(/C=C/c3ccccc3Cl)=NN2c2cccc(S(=O)(=O)O)c2)N1c1nc2ccccc2s1 (stereo unspecified) | inactive: > 100 µM
25 | N#Cc1cccc2c1Nc1ccccc1S2 | inactive: > 100 µM
26 | CCOC(=O)c1nc2ccc(C(F)(F)F)cc2nc1NCc1ccc(OC)c(OC)c1 | inactive: 52.8 µM
27 | Cc1cc(NS(=O)(=O)c2ccc(NC(=O)c3ccc(Cl)c4c(Nc5ccc(S(=O)(=O)Nc6cc(C)on6)cc5)c5ccccc5nc34)cc2)no1 | inactive: 19 µM
28 | Cc1ccccc1NC(=O)Cc1nc2ccccc2s1 | inactive: 18.8 µM
29 | CCCCN1C(=O)C[C@H]2[C@@H]3CCc4cc(OCCN5CCCC5)ccc4[C@H]3CC[C@]2(C)C1=O | inactive: 9.64 µM
30 | CN(C(=O)c1ccc([N+](=O)[O-])cc1)c1ccccc1 | inactive: > 100 µM
31 | CC(C)c1nc(Cl)c(Cl)c(Cl)n1 | inactive: 8.3 µM
32 | CC(C)(C)C1CCC2c3c([nH]c4ncccc34)C3C(=O)N(c4ccccc4)C(=O)C3C2C1 (stereo unspecified) | inactive: > 100 µM
33 | COC(=O)C1=C(O)C(C(=O)OC)[C@]2(O)[C@H](C(=O)OC)[C@H]1C[C@@H](c1ccc(Cl)cc1Cl)[C@H]2C(=O)OC (stereo partly specified) | inactive: 14.9 µM
34 | Cc1ccc(-c2n[nH]c(=O)[nH]2)cc1 | inactive: > 100 µM
35 | CN/C(=N\N)NS(=O)(=O)c1cc(C)c(Cl)cc1S | inactive: 72.6 µM
36 | COc1cc(C(=O)C/C(CCC(=O)Nc2ccc(Cl)cc2Cl)=N/Nc2nnc(C)n2N)ccc1O | inactive: > 100 µM
37 | COc1ccc2nc3cc(Cl)ccc3c(Nc3ccc(O)c(CN4CCN(C)CC4)c3)c2c1 | inactive: 1.71 µM
38 | CC(=O)/C(=C/N1CC(=O)NC1=S)C(=O)Nc1ccccc1C | inactive: > 100 µM
39 | COC(=O)[C@@H]1c2[nH]c3ccccc3c2C[C@@H]2c3ccccc3NC(=O)[C@@H]21 | inactive: > 96.2 µM
40 | C/C=C\C(CC(=O)NCCC1CN(S(=O)(=O)C(F)(F)F)c2ccccc21)CC(=O)OC (stereo unspecified) | inactive: 71.3 µM
41 | COc1ccc(-c2cc(Cc3cccs3)c(=O)[nH]n2)cc1 | inactive: > 100 µM
42 | O=C(O)c1nc2ccc(C(F)(F)F)cc2nc1NCc1ccc(Cl)c(Cl)c1 | inactive: 19.1 µM
43 | CNC(=O)CN(C)C(=O)CCC(=O)N(C)C | inactive: > 100 µM
44 | O=C1Nc2cccc(Cl)c2/C1=C\c1c(-c2ccccc2)nc2n1CCS2 | inactive: 26.5 µM

Row | SMILES | GI50
45 | O=c1oc2ccccc2c(O)c1C(C/C(CCN1CCCC1)=N/O)c1ccccc1 (stereo unspecified) | inactive: > 100 µM
46 | COc1ccc(C(=O)N/N=C/c2c(C)n(C)n(-c3ccccc3)c2=O)cc1 | inactive: > 100 µM
47 | C[N+]1(CCC(=O)c2ccccc2)CCC2CCC(C2)C1 (stereo unspecified) | inactive: > 100 µM
48 | CCOC(=O)c1ccc(-n2cnc(-c3ccc([N+](=O)[O-])cc3)c2)cc1 | inactive: > 100 µM
49 | CC(C)(C)C(=C[S+]([O-])/N=C/c1ccccc1)C(C)(C)C (stereo unspecified) | inactive: 84.1 µM
50 | ClC(Cl)(Cl)C1CCOC1n1nc2ccccc2n1 (stereo unspecified) | inactive: > 100 µM
51 | CSCCC(NC(=O)Cc1ccc(C(=O)c2ccccc2)cc1)C(=O)N1CCN(CCCCN2c3ccccc3Sc3cc(N=[N+]=[N-])ccc32)CC1 (stereo unspecified) | inactive: > 100 µM
52 | CC1(C)CCCCCCCCCC(C)(CCCO)C1=O (stereo unspecified) | inactive: 12.2 µM
53 | O=S(=O)(c1cc(Cl)ccc1Cl)N1CCN(S(=O)(=O)c2cc(Cl)ccc2Cl)CC1 | inactive: > 100 µM
54 | Cc1ccc(C)c2c1CC(Cc1ccccc1C(=O)O)C2=O (stereo unspecified) | inactive: > 100 µM
55 | CC1(C)CC(=O)c2c(nc3ccc4ccccc4c3c2-c2ccc(NC(=O)CCCCC(=O)Nc3ccc(-c4c5c(nc6ccc7ccccc7c46)CC(C)(C)CC5=O)cc3)cc2)C1 | inactive: > 100 µM
56 | CCOC(=O)c1c(C(F)(F)F)oc2c1ccc1nc3nonc3nc12 | inactive: 29.9 µM
57 | Cc1n[nH]c(=O)n1/N=C/c1ccc([N+](=O)[O-])cc1 | inactive: 87.1 µM
58 | CCCCCCC(=O)C/C(CCC(=O)N(Cc1ccccc1)Cc1ccccc1)=N\Nc1ccc([N+](=O)[O-])cc1[N+](=O)[O-] | inactive: > 100 µM
59 | Cc1cc(C)nc(NS(=O)(=O)c2ccc(Nc3c4ccccc4nc4c(C(=O)N5CCN(CCOS(C)(=O)=O)CC5)cccc34)cc2)n1 | inactive: > 100 µM
60 | O=C1CSc2sc(=S)sc2S1 | inactive: > 100 µM
61 | COC(=O)C(=C\Sc1ccccc1)/C=C/C(=O)OC(C)(C)C | inactive: 17.1 µM
62 | COc1cc(S(=O)(=O)Nc2nc(-c3ccc(N)cc3)cs2)ccc1Cl | inactive: > 100 µM
63 | [N-]=[N+]=NC1(N=[N+]=[N-])C(=O)NN=C(c2ccccc2)C1=O (stereo unspecified) | inactive: > 100 µM
64 | C=C1CC2CC(O)CC(C1)C2 (stereo unspecified) | inactive: > 100 µM
65 | O=C(O)CCN(CCCN(CCC(=O)O)CCC(=O)O)CCC(=O)O | inactive: > 100 µM
66 | N#C/N=C1/c2ccccc2/C(=N/C#N)c2cc(CO)ccc21 | inactive: 34.6 µM

Row | SMILES | GI50
67 | Cn1c(=O)c(/N=N/c2c(=O)n(C)c(=O)n3c2[nH]c2ccccc23)c2[nH]c3ccccc3n2c1=O | inactive: 90.8 µM
68 | Nc1ncc(Cc2nn3c(COc4ccc(Cl)cc4)nnc3s2)s1 | inactive: 11.2 µM
69 | COc1ccc(/C=C2\N=C(c3ccccc3)N(NC3=NC(=O)CC(=O)N3)C2=O)cc1 | inactive: > 100 µM
70 | CC1=C(C(=O)OC23CC4CC(CC(C4)C2)C3)C(c2ccccc2OC(F)F)C(C(=O)OC23CC4CC(CC(C4)C2)C3)=C(C)N1 (stereo unspecified) | inactive: > 100 µM
71 | CC(=O)O[C@H]1C(=O)[C@@]2(C)[C@H]([C@H](OC(=O)c3ccc([N+](=O)[O-])cc3)[C@]3(O)C[C@H](OC(=O)[C@H](O)[C@@H](NC(=O)c4ccccc4)c4ccccc4)C(C)=C1C3(C)C)[C@]1(OC(C)=O)CO[C@@H]1C[C@@H]2O | inactive: > 25 µM
72 | COC(=O)/C=C/c1cc(OC)c(OC)c(OC)c1 | inactive: > 100 µM
73 | O=C(OCC1OC(c2nn[nH]n2)C(OC(=O)c2ccccc2)C1OC(=O)c1ccccc1)c1ccccc1 (stereo unspecified) | inactive: > 100 µM
74 | COC(=NCCC1=CCCCC1)OC | inactive: > 100 µM
75 | O=C(N/N=C\c1cccc2ccccc12)Nc1ccccc1 | inactive: > 100 µM
76 | O=c1[nH]c(=O)n(C2OC(COP(=O)(O)OP(=O)(O)OC3OC(CO)C(O)C(O)C3O)C(O)C2O)cc1F (stereo unspecified) | active: 0.0366 µM
77 | C=C1C2C[C@@H]3OC4CC5O[C@]6(CC5OC4C(C)C3OC(=O)CC3CC[C@@H]4OC5C7OC8C[C@](CCC9CC(=C)[C@H](CCC(C[C@H]1C)O2)O9)(OC7C4O3)O[C@@H]85)C[C@@H]1O[C@@]2(CC(C)[C@@H]3OC(CC(=O)CCO)C(O)C[C@@H]3O2)CC(C)[C@@H]1O6 (stereo partly specified) | active: < 0.001 µM
78 | CC1=C2C(=CC(C)(CO)C2O)C(=O)C(C)(O)C12CC2 (stereo unspecified) | active: 0.00984 µM
79 | C=C1C(OC(=O)/C=C/c2ccccc2)CC(OC(C)=O)C2(C)C1CC1CC(OC(C)=O)C(C)=C(C(OC(C)=O)C2OC(C)=O)C1(C)C (stereo unspecified) | inactive: > 100 µM
80 | COC(=O)[C@@]12C(=O)C=CC(=O)C1C1C(=CC2C)OC2OC3(CCCCC3)OC21 (stereo partly specified) | inactive: 18.6 µM
81 | CCN(CC)C(=S)SS(=O)(=O)c1ccc([N+](=O)[O-])cc1 | inactive: > 100 µM
82 | OCCNc1ncnc2c1ncn2C1OC(CO)C(O)C1O (stereo unspecified) | inactive: 38.4 µM
83 | CC(CC[C@@H](O)C(C)(C)O)C1[C@@H](O)CC2(C)C3CC(O)C4C(C)(C)[C@@H](OC5OC(CO)C(O)C(O)C5O)CC[C@@]45C[C@@]35CC[C@]12C (stereo partly specified) | inactive: > 10 µM
84 | O=C(/C=C/c1ccc(O)c(O)c1)NC(COC(=O)/C=C/c1ccc(O)c(O)c1)C(=O)O (stereo unspecified) | inactive: > 100 µM
85 | CCCCC1=C(Br)C(=C(Br)Br)OC1=O | inactive: 9.06 µM
86 | CN(O)C(=O)Cc1ccc(OCc2cccc(Cl)c2)cc1 | inactive: > 100 µM
